# Results reported in the RNAGym collection of RNA variant scans (doi:10.7554/elife.90254).
# The source gives no read counts; variants with many changes may rest on few reads.
# B1: LINE1-mini (parent)
# chain: GGCAGAGCUCAACACAGCGUGGCAAAGUGGCUGUGGCUAGACUGCC
# Variants of: B1
# Test: self-cleavage, relative activity (ratio to wild type); higher = more cleavage; in vitro, sequencing; the parent is a self-cleaving ribozyme
row,Variant,self-cleavage
1,C3G A12U C15A G19U U32C,0.26
2,A6U C18A C37A G44A,0.04
3,G36A C37A U43C,0.12
4,A4G C18A G35A,0.04
5,A11C G30U G35U,0
6,G7C G27C C31A C37G G40C U43C,0.01
7,A6C A16C G33A C45G,0
8,A4G C13U C15A C18A U28G,0.02
9,C42G U43C G44U,0.07
10,C10U U34G C37G,0.01
11,G7A G22A C45U C46U,0.17
12,A6G C13A G35C,0
13,C8A A11G U28A,0.04
14,C15A U20A G29C,0.42
15,U9A C10G G22U C45U,0.01
16,A6U U38G C42A U43A,0.02
17,G5A U32G C46A,0.04
18,A4C C18U U28C,0.03
19,C8U C10A C31U G36C,0.02
20,C8U A26U G44U,0.74
21,A6G C13A G19A G27C,0.01
22,G1C G2A A6G,0.1
23,G5U A11U C13U A16C U28C G30A,0.03
24,U20A A25U A41C,0.04

row,Variant,self-cleavage
1,C10U C23G G30U C37U,0.01
2,C15G G33U G35A A39G,0.02
3,G5A C31U U34C,0.02
4,A12C C15G G19A C46A,0
5,A4G C13U G29U C46G,0.08
6,G7C C13U G22U U38C,0.17
7,U9A A24C G30C C37U U43A,0.3
8,G5C U20A G22A G40C,0.06
9,G1U G33A G44A,0.07
10,G1C C18A G27A G30U A39U,0.05
11,A6U G17U C23U C46U,0.37
12,A24C G27C C31A G35U,0.03
13,G27U U38A G40C,0
14,G1U A6C C31A C46A,0.03
15,C18U G22C A26C C31U,0.08
16,G1U G7A C10U U20C G29C,0.01
17,G2A A16G U38A,0.04
18,A4U C15A A26G U43A,0.01
19,A16U G29U U34A,0.11
20,C10G G30U C31A,0.26
21,A12G G36C U43C,0.01
22,C18U G19U G40U A41U C42U,0.03
23,A4G A6U C37A,0.05
24,A14U G36A A39U,0.09

row,Variant,self-cleavage
1,U20G A25U C31A C46A,0.04
2,G1A G22U C23G U32A,0.05
3,C3U A4C C15A C23A A26U U38A,0.03
4,A11C A14U C37G C45A,0.02
5,G1U G36U U38C,0
6,A6C C10U G30U C37A C42G,0.01
7,G7C C8A C18G G29U,0.3
8,G5U C8A C13A A39G,0.15
9,A4C G33U G40U,0.14
10,C23U G27U G36U,0.04
11,C8U A25G G29U U34C,0.05
12,G5A A11G C18A G21U A24G U28A,0.02
13,G1C A4C A41G,0.06
14,G27A G35U A41U,0.04
15,A4U G36U C42G C46U,0.01
16,C3U A4U C10A,0.03
17,U9A A25C G27A U34A C42U,0.2
18,A16U G21U U28G,0.04
19,C8A A14U C31U C46A,0.03
20,G22A G27C C37U G40C G44A,0.01
21,G17C G27U U34C C37U A39G,0.03
22,C23G G30A A39C,0.08
23,G2A A25U A39C,0.3
24,G1C G2A C15U U20G G21C,0.09

row,Variant,self-cleavage
1,C18G G36U A41G,0.02
2,C13G G19C G27A,0.17
3,G5U G21U A26G G30C C31G,0.06
4,C10A A24G G29U C31G,0.03
5,G35A A39G G44U C45U,0.04
6,A4G G17U G22U G36A,0.63
7,C13A U20A U43C G44U,0.06
8,G2U A24G G29C G30A,0.24
9,G22U A26U C37A C45G,0.03
10,U28G U43G G44C,0.05
11,A6G C18A U32A U43A,0.11
12,A4G A26C G30A C42G,0.01
13,G5A C15U G21C U32A C42A,0.01
14,A6C U9G G29U C46A,0.04
15,A24U A26C U32G,0.15
16,G5U C18A G22U G44U,0.05
17,G21C A26C G27U,0.99
18,A4U C31G G40U C42G,0.02
19,A4G U32G U38A C46G,0.01
20,A16G A25G U38C,0.01
21,U9C U20G C23A,0.02
22,G2A A11C G19C A25U A41C,0.01
23,C10A C31U G33U,0.03
24,C10G A41U C45A,0.02

row,Variant,self-cleavage
1,A14U G17C U34G C37A C45A,0.09
2,G7U G19C C23G U32A,0.03
3,A6U C13A G30C,0.17
4,A6C A14C U20C G22A A25U U43C,0.02
5,A6G C10U C18G,0.03
6,G17C G22U G30U C37G,0.02
7,G7A U9G A26U C42U,0.06
8,C10A G27C G29U U32A,0.01
9,C15A G17C C18A,0.02
10,C10A G19C A25C G27C G33A U34A C37U,0.01
11,U9A A41G G44C,0.02
12,G2U C3A A4U C18G G19A A24G A26C,0.12
13,G7C A25C G30U G36A,0.05
14,U9C G17U C31U,0.02
15,C8A G30A U34A,0.37
16,G2U U32G G33U,0.02
17,G19U G22U G30U U38A G40U,0.14
18,A12G A14U A25U U38G,0.01
19,G5C A16U G29A C31U C42U,0.02
20,G7U U38G C42U,0.05
21,A6U U28A C45G,0.29
22,G21C A24U A39U,0.44
23,C8G C10G G27A C42U G44C,0
24,U9A A12U C13U C15U A24G A41C,0.1

row,Variant,self-cleavage
1,U28A C31G U32G G36U,0.04
2,G5A U28A U43C,0.04
3,C13A U20A A24U A26U C31G U32G,0.05
4,U9A A26C U32A,0.03
5,C3U U9G C18G A24U,0.11
6,C3A C13A G29U G36U U38G A39G C46U,0.78
7,G5C C13U C23U G35U G40C U43A C45A,0.01
8,G22A A26G G40U,0.15
9,G5C A11G A39G,0.02
10,A6C C10U A11G,0.05
11,G5C A11U A12C A14G U20G C31A,0.02
12,U32G G36A C37U,0.06
13,G5C C13A C15A G21A,0.05
14,C10G U32C G33C,0.01
15,C18U G21C G29A,2.05
16,G21C G27C C37U C42G,0.03
17,A6U G27A A41U,0.12
18,G2A C15A G33C U34C,0.14
19,G7U G21U C45A,0.15
20,C10A A12U C18U G21A G33U,0.01
21,C10A A11G G22U,0.03
22,C13G A26G A39C G40A G44A,0.02
23,C10A A11C G22C A41U,0
24,A25U C37A U43A G44A,0.07

row,Variant,self-cleavage
1,G2C C3A A4G C8G U9C G19A G30C G44A,0.01
2,G22U U28A G36U U43A,0.05
3,C3G A12C U38C,0.02
4,G2U G7A G21U A24U,0.08
5,C3G G29U G36U,0.28
6,G7A C15U U20A G27U U28G G40U,0.25
7,C15U G30A A41G,0.11
8,G1A U38C A39U,0.31
9,U9A G17U G27A,0.1
10,A4G A11C C18U A24U,0.02
11,C3A A6C G7U C13G G36U C42A,0.09
12,G2U C15G A24G,0.02
13,G5C A11C A24C,0
14,C13G C18A C23U,0.07
15,G7A C37A C42G,0.2
16,A4G A6G G36U A41G,0.02
17,A6G G35U C42G,0.01
18,G2U G7A G22C C37A U43A,0.02
19,A11U U32G G35U,0.06
20,G2U U9C C18A G21C G35C,0.01
21,C3G U20G G33C G35A,0.1
22,G7U G22U G40A C45A,0.03
23,A6U A25G G44A,0.09
